Some of the results follow. Viral Rep nickase domains cut single-stranded DNA in vitro (1 h at 37 °C, 3 µM enzyme); the outer parts of the 90-letter strands are left off. Uncut reads are compared with the no-enzyme pool on a log2 scale; uncut sequences lie near 0, cut ones below; no hit call is given. The scaling is to total reads; values above 0 arise when much of the pool is cut.
Tested on: T1, Rep nickase domain of tomato golden mosaic virus
T1 sequence (Rep 1-124, printed without the tag): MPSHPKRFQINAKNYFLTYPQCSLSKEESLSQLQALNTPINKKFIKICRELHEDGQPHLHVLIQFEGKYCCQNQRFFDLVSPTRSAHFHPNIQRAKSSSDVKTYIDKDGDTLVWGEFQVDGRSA
Test: uncleaved DNA left, log2 of reads against the no-enzyme library (log2 ratio); higher = less cleavage (more negative = more Rep cleavage of the k-mer); sequences stand for … in CTCGTCCG…ACCGGAGA
Method: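 A pool of 90-nt single-stranded DNAs with seven random bases just before the constant AC of the nick site (name = the seven bases) was cut by 3 µM recombinant His6-SUMO-tagged Rep nickase domain (300 nM DNA, 50 mM HEPES pH 8.0, 50 mM NaCl, 1 mM MnCl2, 1 h, 37 °C, three replicates). Uncut DNA was amplified and sequenced.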

| Sequence | uncleaved DNA left (log2) |
| --- | --- |
| CCAGACA | -0.073 |
| TATCGCT | -0.031 |
| GGCCGGC | 0.0203 |
| CCGGTGC | -0.00851 |
| CGGCTTT | -0.344 |
| ATCCTCC | 0.0866 |
| CAGACGT | 0.015 |
| ACAGGGT | 0.139 |
| TTTACCA | -0.0097 |
| CGCAGGT | 0.0756 |
| AAGTCGC | -0.0731 |
| CGGCTAC | -0.0311 |
| CAGAATC | 0.0492 |
| GGAGCAC | 0.0963 |
| GACTGGG | 0.135 |
| TCTTTTA | 0.0551 |
| TTGACTC | -0.15 |
| GAAGGCA | -0.0208 |
| TTTGGTC | -0.023 |
| AAAAGTC | 0.0236 |

| Sequence | uncleaved DNA left (log2) |
| --- | --- |
| AACAGAG | -0.0519 |
| GCACCGC | -0.0106 |
| CTCTAGT | -0.231 |
| GTTTTCT | 0.0965 |
| TTAAGAC | -0.0418 |
| ATAAAGG | 0.13 |
| TTAGGTC | 0.119 |
| GCTTGAA | 0.171 |
| TGAAACC | 0.0993 |
| CGAAGAT | 0.0336 |
| CGTACCG | -0.0128 |
| CATATTC | 0.108 |
| CGACTCT | -0.196 |
| GTGTATT | -0.105 |
| GACGTAG | 0.0745 |
| GGCGCCG | 0.0764 |
| TCCAGTC | -0.107 |
| ATACTAG | -0.0726 |
| GAGTCAA | 0.0953 |
| GACTTCT | -0.0553 |

From the supplement of paper PMC7826260
